# Measurements taken from PubChem BioAssay AID1346428 (National Center for Advancing Translational Sciences (NCATS), 2018).
# Screen size: about 48,000 compounds; about 1,200 (2.5%) were called active. Inconclusive results (about 2%) are left out.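 How the source made its calls: active means activation of at least 60% and not above a set upper limit (about 1 call in 100 departs from these limits); inconclusive means activation of 40% to 60%, or above that upper limit; inactive means activation under 40%.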 Some of the results follow.
# Biological target: Probable G-protein coupled receptor 32 (Homo sapiens) (UniProt O75388)
# UniProt O75388, sequence (O75388 whole entry, looked up): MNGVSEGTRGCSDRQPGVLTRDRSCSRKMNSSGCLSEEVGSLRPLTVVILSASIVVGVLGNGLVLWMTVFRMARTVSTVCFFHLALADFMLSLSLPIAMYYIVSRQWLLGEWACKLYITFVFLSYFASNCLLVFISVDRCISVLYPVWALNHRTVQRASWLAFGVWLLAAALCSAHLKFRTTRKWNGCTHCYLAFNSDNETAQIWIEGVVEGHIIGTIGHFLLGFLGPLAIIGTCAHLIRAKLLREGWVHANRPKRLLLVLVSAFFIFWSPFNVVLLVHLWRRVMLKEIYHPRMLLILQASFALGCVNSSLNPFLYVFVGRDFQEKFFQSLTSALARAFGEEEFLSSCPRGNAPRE
# Assay: qHTS for Agonists of Human Resolvin D1 Receptor DRV1; further: 0% is about no effect
# Details: CHO-K1 GPR32 beta-arrestin PathHunter luminescence, 90 min; at 76.9 µM; active compounds read high; zero percent set by DMSO-only wells
# In short: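 Engineered CHO-K1 line co-expressing GPR32-ProLink and EA-beta-arrestin. Compound treatment lasted 90 min at 37 °C. Luminescence was recorded after 1 h with substrate at ambient temperature, relative to DMSO basal wells.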
row,SMILES,activation
1,CCc1ccc(S(=O)(=O)Nc2ccc(-c3ccc(N4CCCC4)nn3)cc2)cc1,inactive: 5.18%
2,O=C(NCC(c1ccc(Cl)cc1)N1CCCCC1)c1ccccc1F (stereo not given),inactive: -18.4%
3,COc1ccccc1N1CCN(C(=O)CSc2n[nH]c(-c3ccccc3Cl)n2)CC1,inactive: -0.906%
4,CCOc1ccc(OCC)c(NC(=O)CCc2nc3cccnc3n2-c2ccccc2)c1,inactive: -1.86%
5,COC1(C2=NCCN2)COc2ccccc2O1 (stereo not given),inactive: 2.85%
6,CCC1CN(C(=O)Nc2ccc(Br)cc2F)c2ccccc2S1 (stereo not given),inactive: -28.2%
7,COc1cc(OC)cc(C(=O)Nc2ccc3nc(Nc4cccc(C(F)(F)F)c4)cc(C)c3c2)c1,inactive: -9.34%
8,O=C(NCc1ccc(F)cc1)c1cnc(N2CCCCC2)c2ccccc12,inactive: -2.99%
9,CCCOc1ccc(CNC(=O)C2CCCN(c3nc4c(C)cc(C)cc4s3)C2)cc1 (stereo not given),inactive: 1.51%
10,C#CCn1c(C2CC(=O)N(c3ccc(OCC)cc3)C2)nc2ccccc21 (stereo not given),inactive: -15.4%
11,CCN(CC)C(=O)C1CCN(c2nnc(C)c3c(C)n(-c4ccc(Cl)cc4)nc23)CC1,inactive: 7.1%
12,Cc1cccc(NC(=O)c2ccc(F)c(S(=O)(=O)N3CCC4(CC3)OCCO4)c2)c1,inactive: -16.4%
13,COc1ccc(NC(=O)Cn2c(=O)n(CCCC(=O)NCCc3ccc(C)cc3)c(=O)c3ccccc32)cc1Cl,inactive: -20.1%
14,Cc1ccc(CCNC(=O)c2ccc3c(c2)N(Cc2ccccc2)C(=O)c2ccccc2S3=O)cc1 (stereo not given),inactive: -6.23%
15,COc1ccc(N2CCN(c3ncnc4onc(-c5ccc(F)cc5)c34)CC2)cc1,inactive: -31.4%
16,CC(C)c1ccc(C2c3c(-c4ccccc4O)n[nH]c3C(=O)N2Cc2ccncc2)cc1 (stereo not given),inactive: -7.37%
17,CCCCOC(=O)CSc1nnc(-c2ccc(C)cc2)o1,inactive: 7.03%
18,CC(C)Cn1c(=O)c2ccccc2n2c(CCC(=O)N3CCN(c4ccccc4)CC3)nnc12,inactive: -36.1%
19,COc1ccc(C(=O)Nc2nnc(C)s2)cc1,inactive: -9.46%
20,COc1cc(OC)c(NC(=O)N2CCc3cc(OC)c(OC)cc3C2CC(=O)O)cc1Cl (stereo not given),inactive: -15.4%
21,CCc1ccc(C2CC(=O)c3c([nH]c(C(=O)OCCOc4ccccc4)c3C)C2)cc1 (stereo not given),inactive: 22.5%
22,COc1ccc(Nc2cc(C)nc3c(C)c(C)ccc23)cc1,inactive: 12.5%

row,SMILES,activation
1,NS(=O)(=O)c1cc2c(cc1C(F)(F)F)NCNS2(=O)=O,inactive: -8%
2,CC(C)NC[C@@H](O)COc1ccc(CC(N)=O)cc1,inactive: -42.2%
3,Cc1ccc(Cl)cc1NC(c1ccc(F)cc1)c1nnc(-c2ccccc2)o1 (stereo not given),inactive: -7.08%
4,Cc1ccc(NC(=O)C(CC(C)C)NS(=O)(=O)c2ccc3c(c2)oc(=O)n3C)c(C)c1 (stereo not given),inactive: 11%
5,Cc1ccc2onc(CNC(=O)Nc3cc(F)ccc3F)c2c1,inactive: -3.75%
6,Cc1ccc2c(c1)Cc1c(nc(-c3ccc(Cl)cc3)nc1SCC(=O)N1CCCCC1)O2,inactive: 8.77%
7,Cc1ccn2c(Nc3ccc4c(c3)OCCO4)c(-c3cccs3)nc2c1,inactive: -2.25%
8,COc1cccc2c1Oc1ncccc1N(c1ccc(C(=O)NCc3ccccc3Cl)s1)C2,inactive: -13.1%
9,CC(=O)N1CCc2c(sc3c2c(=O)n(CCc2ccccc2)c(=O)n3CC(=O)Nc2ccc(C)c(F)c2)C1,inactive: 7.02%
10,O=C(CSc1nnc(-c2ccc(Cl)cc2)o1)Nc1ccc(F)cc1,inactive: -19.6%
11,COc1ccc(-n2c(=O)c3ccccc3n(Cc3cccc(C)c3)c2=O)cc1,inactive: -5.79%
12,COc1cccc(Cn2c(CNS(=O)(=O)c3ccc(C(C)(C)C)cc3)nc3cccnc32)c1,inactive: -15.4%
13,CCCN(c1ccc(C(C)C)cc1)S(=O)(=O)c1ccc2c(c1)oc(=O)n2CC(=O)OCC,inactive: -14.3%
14,COc1ccccc1N1CCN(C(=O)c2cc(S(=O)(=O)N3CCC(C)CC3)cn2C)CC1,inactive: 3.88%
15,COc1ccc(-c2nc(CNC(=O)Nc3ccccc3)c(C)o2)cc1,inactive: 26.3%
16,COc1cc2c(-c3cc(Br)ccc3O)nc3c(c(C)nn3-c3ccccc3)c2cc1OC,inactive: -1.75%
17,CCOC(=O)Cn1c(=O)n(CC2CCCO2)c2nc(-c3ccc(C(C)C)cc3)nc(C(N)=O)c21 (stereo not given),inactive: -18.8%
18,NC(=O)CCCCC1CCSS1 (stereo not given),inactive: -76.6%
19,O=C(Nc1nnc(S(=O)(=O)Nc2ccccc2)s1)C1CCCCC1,inactive: -4.1%
20,CCCSc1nnc2[nH]c(=O)cc(C)n12,inactive: -0.514%
21,CCOC(=O)c1ccc(N2C(=O)c3n[nH]c(C)c3C2c2ccc(OCC)cc2)cc1 (stereo not given),inactive: -7.25%
22,Cc1ccccc1N(C)S(=O)(=O)c1nnc(NC(=O)C(C)C)s1,inactive: -1.84%

row,SMILES,activation
1,COc1ccccc1N1CCN(CCCCNC(=O)c2ccc(-c3ccc(C(C)=O)cc3)cc2)CC1,inactive: 0.854%
2,Cc1ccccc1NC(=O)Cn1c(=O)n(Cc2ccccc2)c(=O)c2sc3ccccc3c21,inactive: -24%
3,CCOc1ccc(C(=O)NCC(c2ccco2)S(=O)(=O)c2cccs2)cc1 (stereo not given),inactive: -5.57%
4,Cc1ccccc1-c1nn2c(=O)cc(CN3CCN(S(=O)(=O)c4ccc(Cl)cc4)CC3)nc2s1,inactive: 3.25%
5,COc1ccc2c(C)c(CCC(=O)NCc3ccc(Cl)cc3)c(=O)oc2c1C,inactive: 6.47%
6,CCN(Cc1ccccc1)C(=O)c1nn(-c2ccc(OC)cc2)c(=O)c2c1c1ccccc1n2C,inactive: -9.38%
7,Cc1nn(-c2ccc(N3CCCC3)nn2)c(C)c1CCC(=O)N1CCN(c2ccccc2)CC1,inactive: -3.03%
8,COC(=O)c1ccc(C(=O)OC)c(NC(=O)c2cnn3c(C(F)F)cc(-c4ccccc4)nc23)c1,inactive: 2.13%
9,O=C(COc1ccccc1F)Nc1ccccc1OCc1cc(=O)n2ccccc2n1,inactive: -3.98%
10,CC(C)c1ccc(NC(=O)c2ccc(F)c(S(=O)(=O)N3CCCC3)c2)cc1,inactive: 31.7%
11,CC1CCN(C(=O)Cn2cc(SCc3ccccc3)c3ccccc32)CC1,inactive: -26.4%
12,CN1C(CCl)Nc2cc(Cl)c(S(N)(=O)=O)cc2S1(=O)=O (stereo not given),inactive: 10.6%
13,CCCc1nnc(N2C(=O)c3oc4ccc(F)cc4c(=O)c3C2c2ccc(C(=O)OC)cc2)s1 (stereo not given),inactive: 8.24%
14,COc1ccccc1OCC(=O)Nc1nnc2n1CCS2,inactive: -21.2%
15,C[C@@H](NCCc1ccc(O)cc1)[C@@H](O)c1ccc(O)cc1,inactive: -0.184%
16,COc1cc2ccccc2cc1C(=O)N1CCN(c2nc3c(C)cc(C)cc3s2)CC1,inactive: -5.76%
17,CC1CCN(c2nnc(-n3cccc3CNc3cccc(F)c3)s2)CC1,inactive: -3.78%
18,CCOc1ccc(-n2cc(C(=O)Nc3ccccc3OCC)c3cc(OC)c(OC)cc3c2=O)cc1,inactive: -10.3%
19,Cc1cccc(NC(=O)C2CCN(S(=O)(=O)c3cccc4nsnc34)CC2)c1,inactive: 18.9%
20,CCC(C)NC(=O)Cn1c(=O)n(CC2CCC(C(=O)NC)CC2)c(=O)c2sccc21 (stereo not given),inactive: -8.25%
21,CCC(C(=O)OCCN1CCOC(c2ccccc2)C1C)c1ccccc1 (stereo not given),active: 61.8%
22,Cc1ccc2nc(-c3ccccc3O)c(Nc3ccccc3C)n2c1,inactive: -18%

row,SMILES,activation
1,CCc1ccccc1NC(=O)N1CCN(c2nnc(C)c3c(C)n(-c4ccccc4)nc23)CC1,inactive: 8.87%
2,CCOC(=O)c1c(NC(=O)CS(=O)(=O)c2ccc(C)cc2)sc2c1CCC(C)C2 (stereo not given),inactive: -31.5%
3,CC1CCN(C(=O)Cn2cc(SCc3cccc(F)c3)c3ccccc32)CC1,inactive: -31%
4,Cc1cccc(OCC(=O)Nc2nonc2-c2ccc(Br)cc2)c1C,inactive: 49.1%
5,CCCN1C(=O)C(O)(CC(=O)c2ccc(CC)cc2)c2cc(Br)ccc21 (stereo not given),inactive: 27.1%
6,Cc1cccc(C)c1-n1ncc(C(=O)NCc2ccc3c(c2)OCO3)c1C1CCN(C(=O)OC(C)(C)C)CC1,inactive: -40.4%
7,CCc1ccc(OCC(=O)N(Cc2ccc(C)cc2)Cc2ccco2)cc1,inactive: 36.8%
8,O=C(COc1ccc(Cl)cc1)Nc1sc2c(c1C(=O)Nc1cccc(Cl)c1)CCCC2,inactive: -1.22%
9,CCOc1ccc(CC(=O)Nc2ccc3c(c2)N(C)C(=O)c2ccccc2S3)cc1OCC,inactive: -17%
10,CCCCN(C)CCCNC(=O)c1cc(=O)[nH]c2ccc(S(=O)(=O)N3CCCCC3)cc12,inactive: -1.76%
11,CC(=O)N1c2ccc(S(=O)(=O)NCC3CCC(C(=O)Nc4ccccc4C)CC3)cc2CC1C (stereo not given),inactive: -4.94%
12,O=C(Nc1ccc(OC(F)(F)F)cc1)C1CCCN(S(=O)(=O)c2cccc3nonc23)C1 (stereo not given),inactive: 33.7%
13,Nc1ncnc2c1nc(Br)n2C1OC2COP(=O)(O)O[C@@H]2C1O (stereo not given in full),inactive: 6.98%
14,COCCCNC(=O)CN1C(=O)COc2ccc(S(=O)(=O)N3CCCCCC3)cc21,inactive: 5.28%
15,COc1ccc2c(c1)CCc1sc(NC(=O)c3ccc(Cl)cc3)nc1-2,inactive: -29.7%
16,CCC1=Nc2cc(C(=O)NC(C)c3ccccc3)ccc2Sc2ccc(Cl)cc21 (stereo not given),inactive: 2.79%
17,Ic1ccc(N2CCN(Cc3c[nH]c4ncccc34)CC2)cc1,active: 76.1%
18,Cc1cccc(-n2cc(-c3ccccc3)c3c(NC(C)C)ncnc32)c1,inactive: -12.8%
19,CC1CCN(S(=O)(=O)c2cn(CC(=O)Nc3ccc(F)c(Cl)c3)c(=O)c3ccccc23)CC1,inactive: 35.5%
